# The supplement of paper PMC8728848
# This is one part of the list.
# B1: Gal 2 (Canis lupus) (protein)
# chain: MSGKFEVMNMDMKLGGTLKIKGKIAGDADGFVINLGQGSDKLNLHFNPRFHESVIVCNSRNWGQEQRDKHMCFSPGSEVKFTVTFENDGFKVKLPDGHQLTFPNRLGHSHLSYLGVQGGLKVSSFKIE
# How the values were obtained:
# Assay in all cases: glycan array binding signal (z-score within array); higher = stronger binding
# Conditions in all cases: glycan notation: IUPAC condensed, linker removed
# [1] = target: Neu5Ac(a2-6)Gal(b1-4)GlcNAc(b1-3)Gal(b1-4)GlcNAc(b1-3)Gal(b1-4)GlcNAc
# Procedure, shortened: (§1)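 The binding signal is a Z-score computed within each array and averaged over linkers. Arrays of the same protein sequence at different concentrations or buffers were also averaged together. Data originate from 3228 arrays in the Consortium for Functional Glycomics database, kept only where the protein sequence was available.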
# [2] = target: Neu5Ac(a2-6)Gal(b1-4)GlcNAc(b1-3)Gal(b1-4)[Fuc(a1-3)]GlcNAc(b1-3)Gal(b1-4)[Fuc(a1-3)]GlcNAc
# Procedure, shortened: as §1
# [3] = target: Neu5Ac(a2-6)Gal(b1-4)GlcNAc(b1-3)GalNAc
# Procedure, shortened: as §1
# [4] = target: Neu5Ac(a2-6)Gal(b1-4)GlcNAc6S
# Procedure, shortened: as §1
# [5] = target: Neu5Ac(a2-6)GalNAc
# Procedure, shortened: as §1
# [6] = target: Neu5Ac(a2-6)GalNAc(b1-4)GlcNAc
# Procedure, shortened: as §1
# [7] = target: Neu5Ac(a2-6)GlcNAc(b1-4)GlcNAc
# Procedure, shortened: as §1
# [8] = target: Neu5Ac(a2-6)GlcNAc(b1-4)GlcNAc(b1-4)GlcNAc
# Procedure, shortened: as §1
# [9] = target: Neu5Ac(a2-8)Neu5Ac
# Procedure, shortened: as §1
# [10] = target: Neu5Ac(a2-8)Neu5Ac(a2-3)Gal(b1-4)Glc
# Procedure, shortened: as §1
# [11] = target: Neu5Ac(a2-8)Neu5Ac(a2-3)[Gal(b1-3)GalNAc(b1-4)]Gal(b1-4)Glc
# Procedure, shortened: as §1
# [12] = target: Neu5Ac(a2-8)Neu5Ac(a2-3)[GalNAc(b1-4)]Gal(b1-4)Glc
# Procedure, shortened: as §1
# [13] = target: Neu5Ac(a2-8)Neu5Ac(a2-8)Neu5Ac
# Procedure, shortened: as §1
# [14] = target: Neu5Ac(a2-8)Neu5Ac(a2-8)Neu5Ac(a2-3)Gal(b1-4)Glc
# Procedure, shortened: as §1
# [15] = target: Neu5Ac(a2-8)Neu5Ac(a2-8)Neu5Ac(a2-3)[GalNAc(b1-4)]Gal(b1-4)Glc
# Procedure, shortened: as §1
# [16] = target: Neu5Ac(a2-8)Neu5Ac(a2-8)Neu5Ac(a2-8)Neu5Ac(a2-3)[GalNAc(b1-4)]Gal(b1-4)Glc
# Procedure, shortened: as §1
# [17] = target: Neu5Ac(b2-6)Gal(b1-4)GlcNAc
# Procedure, shortened: as §1
# [18] = target: Neu5Ac(b2-6)GalNAc
# Procedure, shortened: as §1
# [19] = target: Neu5Ac9Ac(a2-3)Gal(b1-3)GlcNAc
# Procedure, shortened: as §1
# [20] = target: Neu5Ac9Ac(a2-3)Gal(b1-4)GlcNAc
# Procedure, shortened: as §1
# [21] = target: Neu5Ac9Ac(a2-6)Gal(b1-4)GlcNAc
# Procedure, shortened: as §1
# [22] = target: Neu5Gc(a2-3)Gal(b1-3)GlcNAc
# Procedure, shortened: as §1
# [23] = target: Neu5Gc(a2-3)Gal(b1-3)[Fuc(a1-4)]GlcNAc
# Procedure, shortened: as §1
# [24] = target: Neu5Gc(a2-3)Gal(b1-4)Glc
# Procedure, shortened: as §1
# [25] = target: Neu5Gc(a2-3)Gal(b1-4)GlcNAc
# Procedure, shortened: as §1
# [26] = target: Neu5Gc(a2-3)Gal(b1-4)[Fuc(a1-3)]GlcNAc
# Procedure, shortened: as §1
# [27] = target: Neu5Gc(a2-6)Gal(b1-4)GlcNAc
# Procedure, shortened: as §1
# [28] = target: Neu5Gc(a2-6)GalNAc
# Procedure, shortened: as §1
# [29] = target: Neu5Gc(b2-6)Gal(b1-4)GlcNAc
# Procedure, shortened: as §1
binder,measurement,setting,value
B1,glycan array binding signal (z-score),[1],-0.293
same,glycan array binding signal (z-score),[2],0.104
same,glycan array binding signal (z-score),[3],0.102
same,glycan array binding signal (z-score),[4],-0.151
same,glycan array binding signal (z-score),[5],-0.513
same,glycan array binding signal (z-score),[6],-0.227
same,glycan array binding signal (z-score),[7],-0.326
same,glycan array binding signal (z-score),[8],-0.115
same,glycan array binding signal (z-score),[9],0.138
same,glycan array binding signal (z-score),[10],-0.355
same,glycan array binding signal (z-score),[11],-0.063
same,glycan array binding signal (z-score),[12],0.24
same,glycan array binding signal (z-score),[13],-0.068
same,glycan array binding signal (z-score),[14],0.04
same,glycan array binding signal (z-score),[15],-0.06
same,glycan array binding signal (z-score),[16],-0.153
same,glycan array binding signal (z-score),[17],-0.11
same,glycan array binding signal (z-score),[18],-0.068
same,glycan array binding signal (z-score),[19],-0.194
same,glycan array binding signal (z-score),[20],-0.277
same,glycan array binding signal (z-score),[21],-0.357
same,glycan array binding signal (z-score),[22],-0.304
same,glycan array binding signal (z-score),[23],-0.339
same,glycan array binding signal (z-score),[24],0.018
same,glycan array binding signal (z-score),[25],-0.159
same,glycan array binding signal (z-score),[26],-0.153
same,glycan array binding signal (z-score),[27],-0.407
same,glycan array binding signal (z-score),[28],-0.25
same,glycan array binding signal (z-score),[29],-0.415
